Molecules are shown by their SMILES.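 96-well plates; 48 h exposure; 5 concentrations. Endpoints by linear interpolation between flanking doses. Not reached: highest tested concentration assigned. GI50 marks 50% less growth. Definition used: TGI = concentration required for complete inhibition of growth.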 A value given as a limit tells only on which side of the number the result lay.

The subject of the experiment is NCI-H322M lung. Description: NCI tumour cell line growth inhibition, 48 h.
Take `C[C@@H](Nc1c(C#N)cnc2ccc(-c3cnc(Cl)c(NS(C)(=O)=O)c3)cc12)c1ccccc1`: the GI50 was 0.725 µM and the TGI is 8.74 µM.

In the case of `O=[N+]([O-])c1ccc(-c2nnc(SCc3ccc(O)c4ncccc34)n2-c2ccccc2)cc1`, the GI50 was 2.53 µM and the TGI is greater than 100 µM.

On to `CN(C)CCCNc1c2ccc(Cl)cc2nc2c1oc1ccc(Cl)cc12`, for which the GI50 was 3.14 µM and the TGI is 11.7 µM.

Regarding `CCc1cc(OC(=O)N2CCC(N3CCCCC3)CC2)ccc1Nc1cc(-c2ccc(-n3cccn3)cc2)[nH]n1`, the GI50 is 2.25 µM and the TGI worked out at 5.8 µM.

Turning to `O=c1oc2ccc(-c3ccc(F)cc3F)cc2c(=O)n1-c1cccc(C(F)(F)F)c1`, the GI50 is 1.34 µM and the TGI is 4.66 µM.

Values taken from PubChem BioAssay (NCI).
